In the supplement of paper PMC8728848:
This is one part of the list.

How the values were obtained:
Test in all cases: glycan array binding signal (z-score within array); higher = stronger binding
Conditions in all cases: glycan notation: IUPAC condensed, linker removed
[1] = molecular target: Gal(b1-4)GlcNAc(b1-3)Gal(b1-4)GlcNAc(b1-6)[Gal(b1-3)]GalNAc
Method in brief: (§1)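 Glycan array data came from 3228 arrays in the Consortium for Functional Glycomics database, and only arrays with an available protein sequence were kept. Glycan names were put into IUPAC-condensed notation, and columns mapping to the same glycan were averaged. The binding signal is a within-array Z-score, averaged across arrays of one protein sequence run at different concentrations or buffers and across linkers. A negative Z-score can be read as non-binding.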

[2] = molecular target: Gal(b1-4)GlcNAc(b1-3)Gal(b1-4)[Fuc(a1-3)]GlcNAc(b1-3)Gal(b1-4)[Fuc(a1-3)]GlcNAc
Method in brief: as §1

[3] = molecular target: Gal(b1-4)GlcNAc(b1-3)GalNAc
Method in brief: as §1

[4] = molecular target: Gal(b1-4)GlcNAc(b1-3)[Fuc(a1-3)GlcNAc(b1-6)]Gal(b1-4)Glc
Method in brief: as §1

[5] = molecular target: Gal(b1-4)GlcNAc(b1-3)[Fuc(a1-3)[Gal(b1-4)]GlcNAc(b1-6)]Gal(b1-4)Glc
Method in brief: as §1

[6] = molecular target: Gal(b1-4)GlcNAc(b1-3)[Gal(b1-4)GlcNAc(b1-6)]Gal(b1-4)Glc
Method in brief: as §1

[7] = molecular target: Gal(b1-4)GlcNAc(b1-3)[Gal(b1-4)GlcNAc(b1-6)]Gal(b1-4)GlcNAc
Method in brief: as §1

[8] = molecular target: Gal(b1-4)GlcNAc(b1-3)[Gal(b1-4)GlcNAc(b1-6)]Gal(b1-4)GlcNAc(b1-3)Gal(b1-4)Glc
Method in brief: as §1

[9] = molecular target: Gal(b1-4)GlcNAc(b1-3)[Gal(b1-4)GlcNAc(b1-6)]Gal(b1-4)GlcNAc(b1-3)[Gal(b1-4)GlcNAc(b1-6)]Gal(b1-4)GlcNAc(b1-3)Gal(b1-4)Glc
Method in brief: as §1

[10] = molecular target: Gal(b1-4)GlcNAc(b1-3)[Gal(b1-4)GlcNAc(b1-6)]Gal(b1-4)GlcNAc(b1-3)[Gal(b1-4)GlcNAc(b1-6)]Gal(b1-4)GlcNAc(b1-3)[Gal(b1-4)GlcNAc(b1-6)]Gal(b1-4)GlcNAc(b1-3)Gal(b1-4)Glc
Method in brief: as §1

[11] = molecular target: Gal(b1-4)GlcNAc(b1-3)[Gal(b1-4)GlcNAc(b1-6)]Gal(b1-4)GlcNAc(b1-3)[Gal(b1-4)GlcNAc(b1-6)]Gal(b1-4)GlcNAc(b1-3)[Gal(b1-4)GlcNAc(b1-6)]Gal(b1-4)GlcNAc(b1-3)[Gal(b1-4)GlcNAc(b1-6)]Gal(b1-4)GlcNAc(b1-3)Gal(b1-4)Glc
Method in brief: as §1

[12] = molecular target: Gal(b1-4)GlcNAc(b1-3)[Gal(b1-4)GlcNAc(b1-6)]GalNAc
Method in brief: as §1

[13] = molecular target: Gal(b1-4)GlcNAc(b1-3)[GlcNAc(b1-6)]Gal(b1-4)GlcNAc
Method in brief: as §1

[14] = molecular target: Gal(b1-4)GlcNAc(b1-6)Gal(b1-4)GlcNAc
Method in brief: as §1

[15] = molecular target: Gal(b1-4)GlcNAc(b1-6)Gal(b1-4)GlcNAc(b1-6)GalNAc
Method in brief: as §1

[16] = molecular target: Gal(b1-4)GlcNAc(b1-6)GalNAc
Method in brief: as §1

[17] = molecular target: Gal(b1-4)GlcNAc(b1-6)[Gal(b1-3)]GalNAc
Method in brief: as §1

[18] = molecular target: Gal(b1-4)GlcNAc(b1-6)[Gal(b1-4)GlcNAc(b1-3)]GalNAc
Method in brief: as §1

Gal(b1-4)GlcNAc6P = molecular target: Gal(b1-4)GlcNAc6P
Method in brief: as §1

Gal(b1-6)Gal = molecular target: Gal(b1-6)Gal
Method in brief: as §1

Gal(b1-6)GalNAc = molecular target: Gal(b1-6)GalNAc
Method in brief: as §1

Gal3S(b1-3)GalNAc = molecular target: Gal3S(b1-3)GalNAc
Method in brief: as §1

[19] = molecular target: Gal3S(b1-3)GalNAc(b1-4)Gal3S(b1-4)Glc
Method in brief: as §1

Gal3S(b1-3)GlcNAc = molecular target: Gal3S(b1-3)GlcNAc
Method in brief: as §1

[20] = molecular target: Gal3S(b1-3)[Fuc(a1-4)]GlcNAc
Method in brief: as §1

[21] = molecular target: Gal3S(b1-3)[Fuc(a1-4)]GlcNAc(b1-3)Gal(b1-4)Glc
Method in brief: as §1

Gal3S(b1-4)Glc = molecular target: Gal3S(b1-4)Glc
Method in brief: as §1

Gal3S(b1-4)Glc6S = molecular target: Gal3S(b1-4)Glc6S
Method in brief: as §1

Gal3S(b1-4)GlcNAc = molecular target: Gal3S(b1-4)GlcNAc
Method in brief: as §1

[22] = molecular target: Gal3S(b1-4)GlcNAc(b1-3)Gal
Method in brief: as §1

Gal3S(b1-4)GlcNAc6S = molecular target: Gal3S(b1-4)GlcNAc6S
Method in brief: as §1

[23] = molecular target: Gal3S(b1-4)[Fuc(a1-3)]Glc
Method in brief: as §1

[24] = molecular target: Gal3S(b1-4)[Fuc(a1-3)]Glc6S
Method in brief: as §1

[25] = molecular target: Gal3S(b1-4)[Fuc(a1-3)]GlcNAc
Method in brief: as §1

[26] = molecular target: Gal3S(b1-4)[Fuc(a1-3)]GlcNAc6S
Method in brief: as §1

Gal3S4S(b1-4)GlcNAc = molecular target: Gal3S4S(b1-4)GlcNAc
Method in brief: as §1

Gal3S6S(b1-4)GlcNAc = molecular target: Gal3S6S(b1-4)GlcNAc
Method in brief: as §1

Gal3S6S(b1-4)GlcNAc6S = molecular target: Gal3S6S(b1-4)GlcNAc6S
Method in brief: as §1

Gal4S(b1-4)GlcNAc = molecular target: Gal4S(b1-4)GlcNAc
Method in brief: as §1

Gal4S6S(b1-4)GlcNAc = molecular target: Gal4S6S(b1-4)GlcNAc
Method in brief: as §1

Gal6P(b1-4)GlcNAc = molecular target: Gal6P(b1-4)GlcNAc
Method in brief: as §1

Gal6S(b1-3)GlcNAc = molecular target: Gal6S(b1-3)GlcNAc
Method in brief: as §1

Gal6S(b1-3)GlcNAc6S = molecular target: Gal6S(b1-3)GlcNAc6S
Method in brief: as §1

[27] = molecular target: Gal6S(b1-3)[Fuc(a1-4)]GlcNAc(b1-3)Gal(b1-4)Glc
Method in brief: as §1

Gal6S(b1-4)Glc = molecular target: Gal6S(b1-4)Glc
Method in brief: as §1

B1: CLEC5A (Homo sapiens), Q9NY25 (protein)
chain: MNWHMIISGLIVVVLKVVGMTLFLLYFPQIFNKSNDGFTTTRSYGTVSQIFGSSSPSPNGFITTRSYGTVCPKDWEFYQARCFFLSTSESSWNESRDFCKGKGSTLAIVNTPEKLKFLQDITDAEKYFIGLIYHREEKRWRWINNSVFNGNVTNQNQNFNCATIGLTKTFDAASCDISYRRICEKNAK
glycan array binding signal (z-score) [1]: 0.021 | glycan array binding signal (z-score) [2]: 0.009 | glycan array binding signal (z-score) [3]: -0.368 | glycan array binding signal (z-score) [4]: -0.199 | glycan array binding signal (z-score) [5]: -0.031 | glycan array binding signal (z-score) [6]: -0.031 | glycan array binding signal (z-score) [7]: -0.198 | glycan array binding signal (z-score) [8]: -0.32 | glycan array binding signal (z-score) [9]: -0.32 | glycan array binding signal (z-score) [10]: -0.32 | glycan array binding signal (z-score) [11]: -0.32 | glycan array binding signal (z-score) [12]: 0.073 | glycan array binding signal (z-score) [13]: -0.048 | glycan array binding signal (z-score) [14]: 0.149 | glycan array binding signal (z-score) [15]: -0.064 | glycan array binding signal (z-score) [16]: 0.525 | glycan array binding signal (z-score) [17]: -0.196 | glycan array binding signal (z-score) [18]: -0.112 | glycan array binding signal (z-score) (Gal(b1-4)GlcNAc6P): -0.162 | glycan array binding signal (z-score) (Gal(b1-6)Gal): -0.219 | glycan array binding signal (z-score) (Gal(b1-6)GalNAc): -0.32 | glycan array binding signal (z-score) (Gal3S(b1-3)GalNAc): 0.133 | glycan array binding signal (z-score) [19]: -0.32 | glycan array binding signal (z-score) (Gal3S(b1-3)GlcNAc): -0.055 | glycan array binding signal (z-score) [20]: 0.015 | glycan array binding signal (z-score) [21]: -0.32 | glycan array binding signal (z-score) (Gal3S(b1-4)Glc): 0.053 | glycan array binding signal (z-score) (Gal3S(b1-4)Glc6S): 0.097 | glycan array binding signal (z-score) (Gal3S(b1-4)GlcNAc): -0.162 | glycan array binding signal (z-score) [22]: -0.127 | glycan array binding signal (z-score) (Gal3S(b1-4)GlcNAc6S): 0.016 | glycan array binding signal (z-score) [23]: -0.432 | glycan array binding signal (z-score) [24]: 0.196 | glycan array binding signal (z-score) [25]: -0.164 | glycan array binding signal (z-score) [26]: 0.099 | glycan array binding signal (z-score) (Gal3S4S(b1-4)GlcNAc): -0.351 | glycan array binding signal (z-score) (Gal3S6S(b1-4)GlcNAc): -0.149 | glycan array binding signal (z-score) (Gal3S6S(b1-4)GlcNAc6S): 1.45 | glycan array binding signal (z-score) (Gal4S(b1-4)GlcNAc): -0.21 | glycan array binding signal (z-score) (Gal4S6S(b1-4)GlcNAc): -0.117 | glycan array binding signal (z-score) (Gal6P(b1-4)GlcNAc): -0.196 | glycan array binding signal (z-score) (Gal6S(b1-3)GlcNAc): -0.014 | glycan array binding signal (z-score) (Gal6S(b1-3)GlcNAc6S): -0.066 | glycan array binding signal (z-score) [27]: 1.03 | glycan array binding signal (z-score) (Gal6S(b1-4)Glc): 0.056
